This is an account of results in the supplement of paper PMC8728848.

Common to all, as to assay: glycan array binding signal (z-score within array); higher = stronger binding
What all share (conditions): glycan notation: IUPAC condensed, linker removed

The target in experiment [1] is Gal(b1-4)GlcNAc(b1-3)Gal(b1-4)GlcNAc(b1-3)Gal(b1-4)GlcNAc(b1-3)Gal(b1-4)GlcNAc(b1-2)Man(a1-3)[Gal(b1-4)GlcNAc(b1-3)Gal(b1-4)GlcNAc(b1-3)Gal(b1-4)GlcNAc(b1-3)Gal(b1-4)GlcNAc(b1-2)Man(a1-6)]Man(b1-4)GlcNAc(b1-4)[Fuc(a1-6)]GlcNAc. Summed up: (§1)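 Glycan array data came from 3228 arrays in the Consortium for Functional Glycomics database, and only arrays with an available protein sequence were kept. Glycan names were put into IUPAC-condensed notation, and columns mapping to the same glycan were averaged. The binding signal is a within-array Z-score, averaged across arrays of one protein sequence run at different concentrations or buffers and across linkers. A negative Z-score can be read as non-binding.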

For experiment [2], the target named is Gal(b1-4)GlcNAc(b1-3)Gal(b1-4)GlcNAc(b1-3)Gal(b1-4)GlcNAc(b1-3)Gal(b1-4)GlcNAc(b1-2)[Gal(b1-4)GlcNAc(b1-3)Gal(b1-4)GlcNAc(b1-3)Gal(b1-4)GlcNAc(b1-3)Gal(b1-4)GlcNAc(b1-6)]Man(a1-6)[Gal(b1-4)GlcNAc(b1-3)Gal(b1-4)GlcNAc(b1-3)Gal(b1-4)GlcNAc(b1-3)Gal(b1-4)GlcNAc(b1-2)Man(a1-3)]Man(b1-4)GlcNAc(b1-4)[Fuc(a1-6)]GlcNAc. Summed up:
as §1

Experiment [3] has as its target Gal(b1-4)GlcNAc(b1-3)Gal(b1-4)GlcNAc(b1-3)Gal(b1-4)GlcNAc(b1-3)Gal(b1-4)GlcNAc(b1-3)Gal(b1-4)GlcNAc(b1-2)Man(a1-3)[Gal(b1-4)GlcNAc(b1-3)Gal(b1-4)GlcNAc(b1-3)Gal(b1-4)GlcNAc(b1-3)Gal(b1-4)GlcNAc(b1-3)Gal(b1-4)GlcNAc(b1-2)Man(a1-6)]Man(b1-4)GlcNAc(b1-4)GlcNAc. Summed up:
as §1

The target of experiment [4] is Gal(b1-4)GlcNAc(b1-3)Gal(b1-4)GlcNAc(b1-3)Gal(b1-4)GlcNAc(b1-3)Gal(b1-4)GlcNAc(b1-3)Gal(b1-4)GlcNAc(b1-2)Man(a1-3)[Gal(b1-4)GlcNAc(b1-3)Gal(b1-4)GlcNAc(b1-3)Gal(b1-4)GlcNAc(b1-3)Gal(b1-4)GlcNAc(b1-3)Gal(b1-4)GlcNAc(b1-2)Man(a1-6)]Man(b1-4)GlcNAc(b1-4)[Fuc(a1-6)]GlcNAc. Summed up:
as §1

For experiment [5], the target named is Gal(b1-4)GlcNAc(b1-3)Gal(b1-4)GlcNAc(b1-3)Gal(b1-4)GlcNAc(b1-3)Gal(b1-4)GlcNAc(b1-3)Gal(b1-4)GlcNAc(b1-2)[Gal(b1-4)GlcNAc(b1-3)Gal(b1-4)GlcNAc(b1-3)Gal(b1-4)GlcNAc(b1-3)Gal(b1-4)GlcNAc(b1-3)Gal(b1-4)GlcNAc(b1-6)]Man(a1-6)[Gal(b1-4)GlcNAc(b1-3)Gal(b1-4)GlcNAc(b1-3)Gal(b1-4)GlcNAc(b1-3)Gal(b1-4)GlcNAc(b1-3)Gal(b1-4)GlcNAc(b1-2)Man(a1-3)]Man(b1-4)GlcNAc(b1-4)[Fuc(a1-6)]GlcNAc. Summed up:
as §1

Experiment [6] concerns the target Gal(b1-4)GlcNAc(b1-3)Gal(b1-4)GlcNAc(b1-3)Gal(b1-4)GlcNAc(b1-3)Gal(b1-4)GlcNAc(b1-3)Gal(b1-4)GlcNAc(b1-3)Gal(b1-4)GlcNAc(b1-2)Man(a1-3)[Gal(b1-4)GlcNAc(b1-3)Gal(b1-4)GlcNAc(b1-3)Gal(b1-4)GlcNAc(b1-3)Gal(b1-4)GlcNAc(b1-3)Gal(b1-4)GlcNAc(b1-3)Gal(b1-4)GlcNAc(b1-2)Man(a1-6)]Man(b1-4)GlcNAc(b1-4)GlcNAc. Summed up: as §1
The target in experiment [7] is Gal(b1-4)GlcNAc(b1-3)Gal(b1-4)GlcNAc(b1-3)GalNAc. The method, boiled down: as §1
In experiment [8] the target is Gal(b1-4)GlcNAc(b1-3)Gal(b1-4)GlcNAc(b1-3)[Gal(b1-4)GlcNAc(b1-3)Gal(b1-4)GlcNAc(b1-6)]GalNAc. The method, boiled down:
as §1

Experiment [9] addresses Gal(b1-4)GlcNAc(b1-3)Gal(b1-4)GlcNAc(b1-6)[Gal(b1-3)]GalNAc. Summed up: as §1
The target in experiment [10] is Gal(b1-4)GlcNAc(b1-3)Gal(b1-4)[Fuc(a1-3)]GlcNAc(b1-3)Gal(b1-4)[Fuc(a1-3)]GlcNAc. The method, boiled down: as §1
Experiment [11] has as its target Gal(b1-4)GlcNAc(b1-3)GalNAc. Summed up: as §1
In experiment [12] the target is Gal(b1-4)GlcNAc(b1-3)[Fuc(a1-3)GlcNAc(b1-6)]Gal(b1-4)Glc. The method, boiled down:
as §1

For experiment [13], the target named is Gal(b1-4)GlcNAc(b1-3)[Gal(b1-4)GlcNAc(b1-6)]Gal(b1-4)GlcNAc. The method, boiled down: as §1
For experiment [14], the target named is Gal(b1-4)GlcNAc(b1-3)[Gal(b1-4)GlcNAc(b1-6)]GalNAc. Summed up:
as §1

Experiment [15] concerns the target Gal(b1-4)GlcNAc(b1-3)[GlcNAc(b1-6)]Gal(b1-4)GlcNAc. The method, boiled down:
as §1

Experiment [16] addresses Gal(b1-4)GlcNAc(b1-6)Gal(b1-4)GlcNAc. Summed up:
as §1

Experiment [17] has as its target Gal(b1-4)GlcNAc(b1-6)Gal(b1-4)GlcNAc(b1-6)GalNAc. Summed up:
as §1

In experiment [18] the target is Gal(b1-4)GlcNAc(b1-6)GalNAc. The method, boiled down: as §1
Experiment [19] deals with Gal(b1-4)GlcNAc(b1-6)[Gal(b1-3)]GalNAc. Summed up:
as §1

For experiment [20], the target named is Gal(b1-4)GlcNAc(b1-6)[Gal(b1-4)GlcNAc(b1-3)]GalNAc. Summed up: as §1
A further experiment addresses Gal(b1-4)GlcNAc6P. Summed up: as §1
Another experiment deals with Gal(b1-6)Gal. Summed up: as §1
The next experiment has as its target Gal3S(b1-3)GalNAc. The method, boiled down:
as §1

This is one part of the list.

B1: HPA (Helix pomatia), Q2F1K8 (protein)
chain: MQAFYSGLLLLCVVAFAAAQRVQSGKIDCGNDAGWAKVPSDDPGRDNTRELAKNITFASPYCRPPVVLLSITQLDVEQSQNLRVIARLYSVSPTGFKASCYTWHNTKVYSMSISWISIENY
B1: the “glycan array binding signal (z-score)” value in experiment [1] is 0.15; in experiment [2] it was -0.055; in experiment [3], -0.076; in experiment [4], 0.027; in [5], 0.604; in experiment [6], -0.158. In addition, the “glycan array binding signal (z-score)” value in experiment [7] was 0.395; in experiment [8] it was 0.563; in experiment [9], 0.365; in [10], -0.198; in experiment [11], -0.178; in [12], -0.127. In addition, the “glycan array binding signal (z-score)” value in experiment [13] was -0.259; in experiment [14], -0.304; in experiment [15], -0.26; in experiment [16], -0.234; in experiment [17], -0.17; in [18] it was -0.22. Further, the “glycan array binding signal (z-score)” value was -0.255 in experiment [19]; -0.157 in [20]; -0.288 with Gal(b1-4)GlcNAc6P; -0.294 in the experiment with Gal(b1-6)Gal; 0.371 with Gal3S(b1-3)GalNAc.
